According to the supplement of paper PMC3334620:
The full ranking holds about 33,000 sequences; the median of “E-score (-0.5 to 0.5)” is about -0.036, and the highest 2% start at about 0.37. The list shows a part of the results.

These sequences were tested against T1, Yer064c (UniProt P40041) (assay: PBM E-score (8-mer binding enrichment) (E-score (-0.5 to 0.5)); higher = stronger / more preferred TF binding; most listed sequences are background and not binding sites). Details: protein concentration: 200 nM; construct: GST-full length.
T1 sequence: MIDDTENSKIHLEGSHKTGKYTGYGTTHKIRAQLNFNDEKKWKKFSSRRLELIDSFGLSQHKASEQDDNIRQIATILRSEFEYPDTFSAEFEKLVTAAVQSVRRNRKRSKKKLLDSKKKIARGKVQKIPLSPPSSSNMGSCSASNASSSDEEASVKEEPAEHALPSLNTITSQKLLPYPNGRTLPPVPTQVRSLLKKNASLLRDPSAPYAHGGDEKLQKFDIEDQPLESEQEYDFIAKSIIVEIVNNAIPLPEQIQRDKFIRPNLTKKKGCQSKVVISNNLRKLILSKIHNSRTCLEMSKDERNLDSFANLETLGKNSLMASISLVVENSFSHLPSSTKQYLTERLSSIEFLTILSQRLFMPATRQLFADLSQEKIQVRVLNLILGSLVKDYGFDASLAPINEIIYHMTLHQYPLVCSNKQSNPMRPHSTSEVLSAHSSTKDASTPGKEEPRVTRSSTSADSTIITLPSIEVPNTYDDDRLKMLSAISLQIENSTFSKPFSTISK
Method in brief: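 The E-score, a modified Wilcoxon-Mann-Whitney statistic, was computed by the Universal PBM Analysis Suite for every ungapped eight-base word pooled with its reverse complement. Scans behind it were normalised with masliner after bound GST-tagged yeast transcription factors were detected with fluorescent anti-GST. The proteins, at about 100-200 nM, had been applied to universal all-10-mer Agilent arrays made double-stranded by primer extension.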

| Sequence | PBM E-score |
| --- | --- |
| TACCGTCA | -0.251 |
| AAAGTTGC | -0.226 |
| TAGCTCAA | 0.0744 |
| AAGGGGGA | -0.255 |
| AGGTCTTG | -0.184 |
| TGGCAACA | -0.164 |
| CGGAGGAA | -0.234 |
| ATTGTATA | 0.0405 |
| AATCCAGT | 0.0306 |
| CAACAGGC | -0.111 |
| CCTTAGGA | 0.0314 |
| TATTTCAA | 0.128 |
| CGATCATC | 0.0321 |
| TTGCACAA | -0.00909 |
| AGGCTAGG | -0.237 |
| AAGGCGGT | -0.00732 |
| AGCATGTG | -0.137 |
| CATGATGA | 0.261 |
| TACGCGAA | -0.0629 |
| AAGTATCG | -0.0984 |
| CCGCTAAA | -0.152 |
| CCCAGCCC | -0.256 |
| GGATCCAA | -0.126 |

| Sequence | PBM E-score |
| --- | --- |
| CGCGGAAG | -0.0164 |
| GCATTGCC | -0.271 |
| GGAACGTA | -0.231 |
| AATAGTTC | -0.0167 |
| ACCGGTGC | 0.0386 |
| AATAACTC | 0.15 |
| GCATCCCC | -0.265 |
| ACGTGTAG | -0.0603 |
| ACCACGTG | -0.123 |
| AACGGGAA | -0.137 |
| GCATACAA | -0.207 |
| GGACTCTA | 0.193 |
| ACGGCGAG | 0.0206 |
| ATATCGGG | -0.0749 |
| TCAAATGA | 0.236 |
| AATGAAGT | 0.166 |
| GAATAAAA | -0.00317 |
| CGTCGGTA | -0.123 |
| AGTCACCC | 0.479 |
| AGGGCAGC | 0.0303 |
| AAACATGG | 0.0755 |
| ATGCACAA | 0.0625 |
| TCCTAAGA | -0.00633 |

| Sequence | PBM E-score |
| --- | --- |
| GTTGTAAA | 0.1 |
| ATATGATG | 0.0154 |
| GCTTGATA | -0.101 |
| ACCAGCGC | -0.221 |
| TGTGATAA | 0.199 |
| AAGTGCAA | -0.0297 |
| TGATTCAA | 0.466 |
| CACATGGA | 0.0811 |
| CAACCGGG | -0.193 |
| ATGAATAC | 0.13 |
| TCGCCCAA | -0.079 |
| ACGCGCGG | -0.0883 |
| ACAATCGA | 0.0432 |
| ACAAAGTG | -0.0222 |
| TATACTGA | 0.228 |
| CTCATAGA | 0.155 |
| AGATAATG | -0.0327 |
| CGTTTGCC | -0.0968 |
| GCCATCGC | -0.108 |
| ATGAGGAC | -0.0901 |
| CACGCCGG | -0.036 |
| TGAAAAAA | 0.104 |
| ATTATTAA | 0.168 |

| Sequence | PBM E-score |
| --- | --- |
| GCATCACC | -0.165 |
| TTCCTAAA | 0.0987 |
| GGTGACAA | -0.0376 |
| AGAAGTCC | -0.056 |
| CCGGCCGG | -0.13 |
| CTGAACGC | -0.149 |
| CAATACGC | -0.135 |
| AGGTGAGG | -0.0178 |
| CCCGGCAA | -0.166 |
| GCCCTGCC | -0.34 |
| AGCGCGCT | -0.292 |
| GCTTGCCA | -0.134 |
| TCGGCGAA | 0.0541 |
| ACTACTAG | 0.14 |
| AGGTATTA | -0.00014 |
| ATTAAGTC | 0.317 |
| CATAATCG | 0.109 |
| AAGAGGTG | -0.114 |
| CTACCGCA | -0.00712 |
| ACTCTAAA | 0.267 |
| CTGAAGTC | 0.278 |
| CAAGAACA | -0.0972 |
| ATCTCCGC | -0.0564 |

| Sequence | PBM E-score |
| --- | --- |
| GGTATGTA | -0.0863 |
| ACCCATCT | 0.182 |
| CCACTTGC | -0.243 |
| CTCCGAAA | -0.0419 |
| CGCAAAGC | -0.278 |
| ACGAGGGA | -0.239 |
| GAGATGGA | -0.0342 |
| CGTCGGAA | -0.162 |
| AAATGAAA | 0.128 |
| AGGCTTAA | 0.0942 |
| CGACTCGA | 0.361 |
| AGCCCATA | 0.0485 |
| GACTGTGA | 0.341 |
| GGCCGCCA | -0.119 |
| CCATCTCC | -0.0237 |
| AGCTCTTA | -0.133 |
| CTAGATGC | -0.103 |
| AGGATTCC | 0.0611 |
| AGGAACCT | -0.132 |
| ATAGGCAA | -0.0944 |
| ACTCGCTC | 0.287 |
| ATGTTATA | -0.0918 |
| CTCAGGAA | 0.0377 |

| Sequence | PBM E-score |
| --- | --- |
| GATTAGGA | 0.171 |
| TTAAGCAA | 0.0137 |
| CTGAGACA | 0.351 |
| AGTTTAAG | 0.178 |
| CCGCGTTA | -0.0952 |
| ATCCAGTG | 0.0898 |
| ACGTCGGG | -0.327 |
| GCCGGACA | -0.139 |
| CTCCTGGA | -0.0118 |
| GCGCTCGA | -0.0795 |
| TAATTCTA | 0.00914 |
| AGATAGTC | 0.403 |
| ATTCATCC | 0.119 |
| AAAAGGTT | -0.0197 |
| CAGTGATC | 0.0804 |
| CCCTGAGG | -0.17 |
| CCATAATA | 0.0678 |
| TCTAGAGA | -0.0362 |
| CGTATTAG | 0.11 |
| ATGTCGGA | -0.0825 |
| GAATTACA | -0.0397 |
| GCGGGAAA | -0.147 |
| AGATCGAA | 0.0949 |

| Sequence | PBM E-score |
| --- | --- |
| CTCTCGCC | -0.26 |
| GGCTGAAA | -0.0505 |
| AGTGGCCG | -0.255 |
| CGTGACCC | 0.0177 |
| GTTTCTTA | 0.086 |
| CCCATCGC | 0.0146 |
| ACGGTTAT | -0.219 |
| CAATGAGA | 0.0849 |
| ACCGTCCT | -0.281 |
| CCTTGGAG | -0.04 |
| AGGTAGTG | -0.0767 |
| AAATTGGA | 0.0087 |
| ACCAGGTA | -0.247 |
| AACGATTG | 0.0264 |
| GAGAAACA | 0.028 |
| CGGAGGGA | -0.246 |
| GCAGCGGC | -0.113 |
| AAAGCCGC | -0.0734 |
| CGGCCAAC | -0.0648 |
| ATCCCTAA | -0.121 |
| GAGTGTGA | 0.224 |
| CACACGTA | 0.00361 |
| CCGTTGCG | -0.156 |
